This note sets out measurements from PubChem BioAssay AID488969 (Vanderbilt High Throughput Screening Facility, 2010).

The full ranking holds about 110,000 compounds; the median of “z-score” is about -0.1, and the highest 2% start at about 2. Some of the results follow.

The target of this test is Metabotropic glutamate receptor 8 (Rattus norvegicus) (UniProt P70579). The test is described as follows: mGluR8 Gi/Go-coupled signaling modulation – cell-based, rat, thallium flux, HTS, primary screen (AID 488969). The settings on record: HEK293 rat mGluR8, GIRK (G protein-gated inwardly rectifying potassium channel) thallium flux, FluoZin2; at 10 µM; stronger effect = higher value; submaximal glutamate (EC20) added with thallium.
Chain of UniProt P70579 (P70579 whole entry, looked up): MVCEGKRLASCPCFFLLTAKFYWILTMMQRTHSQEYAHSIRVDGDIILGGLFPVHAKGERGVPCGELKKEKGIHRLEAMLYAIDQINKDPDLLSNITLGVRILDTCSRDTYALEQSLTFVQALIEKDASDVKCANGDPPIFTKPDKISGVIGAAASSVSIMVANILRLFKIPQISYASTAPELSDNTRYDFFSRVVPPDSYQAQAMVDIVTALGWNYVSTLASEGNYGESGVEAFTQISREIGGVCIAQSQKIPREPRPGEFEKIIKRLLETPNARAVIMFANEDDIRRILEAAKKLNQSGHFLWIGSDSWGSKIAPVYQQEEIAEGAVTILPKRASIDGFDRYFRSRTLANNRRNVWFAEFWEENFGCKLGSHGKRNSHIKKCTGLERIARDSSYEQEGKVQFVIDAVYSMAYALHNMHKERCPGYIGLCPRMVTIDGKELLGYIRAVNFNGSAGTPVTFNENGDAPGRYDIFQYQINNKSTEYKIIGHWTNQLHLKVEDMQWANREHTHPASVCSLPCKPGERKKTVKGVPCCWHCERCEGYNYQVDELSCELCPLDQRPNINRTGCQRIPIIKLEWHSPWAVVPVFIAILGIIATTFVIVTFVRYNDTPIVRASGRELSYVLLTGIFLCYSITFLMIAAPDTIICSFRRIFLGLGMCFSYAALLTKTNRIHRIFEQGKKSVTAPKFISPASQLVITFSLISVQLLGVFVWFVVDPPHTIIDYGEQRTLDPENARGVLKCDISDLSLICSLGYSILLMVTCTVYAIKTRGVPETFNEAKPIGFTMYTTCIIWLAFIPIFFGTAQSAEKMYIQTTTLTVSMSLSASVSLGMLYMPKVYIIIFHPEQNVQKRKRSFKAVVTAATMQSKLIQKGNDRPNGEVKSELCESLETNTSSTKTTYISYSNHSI
`O=[N+]([O-])c1cc(Cl)ccc1-c1nc(-c2ccccc2)no1` returned a z-score of -0.192.

Molecule `O=C(Nc1nc2ccc(S(=O)(=O)N3CCCC3)cc2s1)C1CCCCC1` displayed a z-score of -0.0404.

In turn, `Cc1ccc(SCc2ccc(C(=O)NCc3ccncc3)cc2)cc1` showed a z-score of -0.254.

Molecule `Cc1c(Nc2cc(N3CCCC(C)C3)c3nonc3c2[N+](=O)[O-])c(=O)n(-c2ccccc2)n1C` (stereo not given) returned a z-score of 0.0707.

Take `COC(=O)c1ccc(C(C(=O)NCc2ccccc2)N(Cc2ccco2)C(=O)c2cnccn2)cc1` (stereo not given): the z-score is 0.053.

Consider `Cc1cc(O)c(C(C)C)cc1N=C1CSC(=O)N1`, for which the z-score worked out at 0.0721.

For the molecule `O=C(N/N=C/c1ccccc1Cl)c1cccc(F)c1`, the z-score was -0.342.

For `CCOc1cccc(C(=O)N(Cc2ccc(F)cc2)C2CCS(=O)(=O)C2)c1` (stereo not given), the z-score was determined as 0.373.

In the case of `Cc1ccccc1Nc1nc(N)nc(COC(=O)c2ccc(O)cc2)n1`, the z-score is -0.494.

`Cc1ccc(S(=O)(=O)NCC(=O)N(CC(=O)NC2CCCCC2)CC2CCCO2)cc1` (stereo not given): the z-score is -0.238.

Turning to `CCOc1ccccc1-c1c2cc(O)c(=O)cc-2oc2cc(O)c(O)cc12`, the z-score was -2.16.

With `CC(=O)N(C)/C=C1\Sc2ccccc2C1=O`, the z-score is -0.376.

Regarding `O=C(O)C1C2C=CC(C2)C1C(=O)Nc1ccc(C(=O)N2CCCCC2)cc1` (stereo not given), the z-score amounted to 0.353.

Molecule `COC(=O)c1ccc(N=NN2CCCCCC2)cc1` yielded a z-score of 0.0254.

Molecule `COc1cc(C(=O)Sc2ccc(Cl)cc2)cc(OC)c1OC` displayed a z-score of -0.128.

In the case of `CC(Oc1ccc(Cl)cc1Cl)C(=O)N/N=C1\CCCc2ccccc21` (stereo not given), the z-score turned out to be 0.0705.

`CC1Cc2ccccc2N1C(=O)Cn1nnc(-c2ccccc2NC(=O)C2CCC2)n1` (stereo not given) registered a z-score of -1.37.

For the molecule `Nc1ncc(Br)cc1S(=O)(=O)NCCC(=O)Nc1cccc(Cl)c1`, the z-score was -0.243.

`O=C(NCc1ccco1)/C(=C/c1cccnc1)NC(=O)c1ccco1`: the z-score is -0.286.

As for `COc1ccccc1CNC(=O)c1ccc(SC)cc1OC`, the z-score is -0.356.

In turn, `CC(=O)CSc1nc(N)c(C#N)c(-c2cccs2)c1C#N` yielded a z-score of -0.18.

As for `COc1ccc(-c2nn3cnnc3s2)cc1OC`, the z-score is -0.33.

The molecule `CCCCSc1nnc2[nH]c(=O)cc(N)n12` gave a z-score of 0.203.

Molecule `Cc1ccccc1Cn1ccc(NC(=O)c2cnn3c2NC(c2ccccc2)CC3C(F)(F)F)n1` (stereo not given) showed a z-score of -0.0576.

In the case of `CC1CC1C(=O)Nc1nc(-c2ccccn2)cs1` (stereo not given), the z-score is -0.149.

For the molecule `O=C(N/N=C/c1ccc2c(c1)OCO2)c1sc2cccc(Cl)c2c1Cl`, the z-score amounted to 0.529.

Molecule `Cc1c(C(=O)Nc2cnccn2)oc2ccccc12` displayed a z-score of -0.235.

For the molecule `CCCC(=O)NCCCc1nc2ccccc2n1CC`, the z-score was -0.618.

As to `COC(=O)C1=C(C)NC(C)=C(C(=O)OC)C1C(=O)OC1CCCCC1=O` (stereo not given), the z-score was -0.107.

`CCCCCC(=O)N/N=C/c1cccs1` showed a z-score of -0.0798.

`CCC(=O)Nc1ccc(/C(C)=N/NC(=O)c2c(Br)c(C)nn2C)cc1` showed a z-score of -0.331.

`COc1ccc(/C=C/C(=O)N(C(C)C)C(C)C)cc1Br` returned a z-score of -0.143.

On to `COc1ccc(C(=O)Nc2ccc(NC(=O)c3ccco3)c(Cl)c2)cc1OC`, for which the z-score is -0.432.

`COC(=O)c1cc(NC(=O)c2cc(C)oc2C)cc(C(=O)OC)c1` came in with a z-score of 0.433.

The molecule `Cc1nc2sc3c(c2c(=N)n1N)CC(C)(C)OC3` returned a z-score of -0.083.

With `CCOC(=O)CN1C(=O)S/C(=C/c2cc(C)n(C)c2C)C1=O`, the z-score is -0.226.

`COc1ccc(C(=O)OC(C(=O)c2ccc(C)cc2)c2ccccc2)cc1` (stereo not given) had a z-score of 0.0355.

Regarding `CCS(=O)(=O)n1nc(-c2ccccc2)nc1NCc1ccco1`, the z-score came out at 2.2.

In turn, `COC(=O)C(NC(C)=O)(Nc1nc2ccc(C)cc2s1)C(F)(F)F` (stereo not given) yielded a z-score of -0.214.

In turn, `Cc1ccc(N2C(=O)CSC2c2ccccn2)cc1Cl` (stereo not given) yielded a z-score of 0.508.

Molecule `Cc1c(NC(=O)/C(C#N)=C/c2ccc(-c3cc(Cl)ccc3Cl)o2)c(=O)n(-c2ccccc2)n1C` returned a z-score of 0.245.

Take `CCCCn1c(SCC(=O)N2CCCC2)nnc1-c1ccccc1`: the z-score was -0.0352.

`CSCc1ccc(C(=O)NCc2ccc(F)cc2)cc1` returned a z-score of -0.21.

`CCOC(=O)c1ccc(NC(=O)CC2C(=O)N(c3cccc(OC)c3)C(=O)N2CCOC)cc1` (stereo not given): the z-score was 0.306.

As to `Cc1cccc(C)c1NC(=S)NNc1ncc(C(F)(F)F)cc1Cl`, the z-score stood at 0.289.

The molecule `CC(=O)Nc1ccc(S(=O)(=O)NNC(=O)c2ccc(C)cc2)cc1` registered a z-score of -0.161.

The molecule `CCOC(=O)c1c(=O)n(O)c2ccc(OC)cc2[n+]1[O-]` came in with a z-score of -0.0541.

The molecule `O=C(CCl)N(c1ccccc1)c1c[nH]c2ccccc12` yielded a z-score of -0.0644.

For the molecule `Cc1ccccc1C(=O)NC(NCc1ccco1)C(Cl)(Cl)Cl` (stereo not given), the z-score was -0.00799.

In turn, `O=C(Nc1ccc(F)cc1)C1CCCCC1` yielded a z-score of -0.555.

For the molecule `Cc1nc(C)c(C(=O)C2=C(O)C(=O)N(CCN3CCOCC3)C2c2ccco2)s1` (stereo not given), the z-score was 0.392.

For `O=C(Oc1nsnc1N1CCOCC1)N1CCCC1`, the z-score was -0.403.

With `CCOc1ccc(S(=O)(=O)Nc2ccc(S(=O)(=O)N3CCOCC3)cc2)cc1`, the z-score is -0.0372.

On to `Cc1nc2nc(-c3ccc(Cl)cc3)cn2nc1C`, for which the z-score is 0.0194.

As to `CC(C)(C)NC(=O)CSc1nc(O)cc(=O)n1-c1ccccc1`, the z-score was -0.397.

As to `Cc1nnsc1NC(=O)OCCCl`, the z-score came out at 0.188.

As for `CCOc1ccccc1NC(=S)N1CCC(NC(=O)NC23CC4CC(CC(C4)C2)C3)CC1`, the z-score is -0.207.

`C=CCNc1oc(-c2ccc(OC)cc2)nc1C#N`: the z-score came to 1.04.

`Cc1cc(NC(=O)c2cnn3c(C(F)F)cc(C4CC4)nc23)no1` registered a z-score of 0.069.

Molecule `COc1ccc(OC)c(S(=O)(=O)Nc2ccc(O)c(Sc3ncn[nH]3)c2)c1` showed a z-score of 0.284.

On to `c1csc(-c2noc(COc3ccc4c(c3)CCCC4)n2)c1`, for which the z-score was -0.0174.

Molecule `C=CCNC(=O)C1CCCN(S(C)(=O)=O)C1` (stereo not given) returned a z-score of -1.25.

`CCN(CC)S(=O)(=O)c1ccc(NC(=O)c2ccc(NS(C)(=O)=O)cc2)cc1`: the z-score is 1.67.

`Cc1ccc(SCCC(=O)N2CCC(C)CC2)cc1` yielded a z-score of -0.0062.

The molecule `CCNC(=S)Nc1ccc(Oc2ccccc2)cc1` had a z-score of 0.818.

For the molecule `CCCC(=O)Nc1ccc(C(=O)NCC2CCCO2)cc1` (stereo not given), the z-score was -0.279.

`O=C(COC(=O)c1ccco1)c1ccc2ccccc2c1`: the z-score is -0.17.

As to `Cc1ccccc1Nc1nc(=O)c2cc([N+](=O)[O-])ccc2s1`, the z-score worked out at 0.941.

The molecule `Cc1ccc(O)c(-c2cc(-c3cccc(F)c3)n[nH]2)c1` registered a z-score of -0.374.

The molecule `COC(=O)CSc1nnc(CNC(=O)c2cccs2)n1-c1cccc(C)c1` displayed a z-score of -0.415.

Consider `CC(Oc1ccccc1)C(=O)NC1CC(C)(C)NC(C)(C)C1` (stereo not given), for which the z-score turned out to be 0.315.

Turning to `CCN(CC)CCOc1ncnc2c1oc1ccccc12`, the z-score is -0.381.

In the case of `CCN(c1ccc(OC)cc1)S(=O)(=O)c1ccc2c(c1)CCN2C(=O)CCC(=O)O`, the z-score was -0.0659.

`CCC(NC(=O)NCc1ccc2c(c1)OCO2)(C(F)(F)F)C(F)(F)F` had a z-score of 0.489.

The molecule `O=C1c2ccccc2C(=O)N1CCCn1nnc(-c2ccc(N3CCOCC3)cc2)n1` returned a z-score of -0.232.

On to `Cc1ccc(F)cc1NC(=O)c1c(-c2ccccc2)noc1C`, for which the z-score is -0.466.

In turn, `O/N=C/c1ccccc1OCc1ccccc1Cl` returned a z-score of -0.196.

For the molecule `Cc1ccc(NC(=O)C2C3CCCC2C3c2ccccc2)cc1` (stereo not given), the z-score is -0.0846.

The molecule `CCN(C(=O)CN1CCN(C)CC1)c1cccc2ccccc12` showed a z-score of -0.614.

`CCn1c(CNc2ccc(Cl)cc2)nnc1SCc1ccc(Cl)cc1` registered a z-score of -0.0561.

On to `CC(=O)c1ccc(NC(=O)C(C)OC(=O)COc2ccc(C#N)cc2)cc1` (stereo not given), for which the z-score was -0.0343.

On to `O=c1cc(O)c2sc3nc(-c4cccnc4)cc(C(F)(F)F)c3c2[nH]1`, for which the z-score was determined as 0.0403.

The molecule `CCOc1cccc(SCc2noc(C(=O)NCCOC)c2C(=O)O)c1` gave a z-score of 0.152.

`Cc1ccc(-n2nnnc2-c2cnc(-c3cccnc3)nc2C(F)(F)F)cc1` registered a z-score of -0.112.

As to `CC(C)Cn1[nH]c2c3c(ccc2c1=O)C(=O)c1ccccc1C3=O`, the z-score is -0.0866.

`CCCCCCn1c(SCCCC)nc2c1c(=O)[nH]c(=O)n2C` gave a z-score of -0.925.

As to `CC(=O)N1CCC(N(C(=O)Nc2c(F)cccc2F)C(C)C)CC1`, the z-score was 0.175.

Turning to `O=c1c2c3n(c(=S)nc2[nH]n1-c1ccccc1)CCCCC3`, the z-score came out at 1.53.

For `Oc1c(Br)cc2oc3c(c2c1CNCc1ccccc1)CCCC3`, the z-score is -0.128.

As for `COc1ccc(NC(=O)CSc2ncnc3c2cnn3CCc2ccccc2)cc1`, the z-score was -0.079.

Regarding `CCn1c(C)c(C(C)=O)c(N2CCN(c3ccccc3)CC2)nc1=S`, the z-score is -0.0503.

As for `Cc1cc(C)n2cc(CSc3nc4ccccc4s3)nc2n1`, the z-score was -0.0757.

`Cc1ccc2cc(CN(CCCO)S(=O)(=O)c3cccc4nsnc34)c(=O)[nH]c2c1` registered a z-score of 0.13.

For the molecule `Cc1ccc(-c2onc3ccc(C4(C)OCCO4)cc23)cc1`, the z-score was 0.0375.

Molecule `CC1(C)SC(=S)N(NC(=O)Nc2cccc3ccccc23)C1N(O)C(=O)Nc1ccccc1` (stereo not given) had a z-score of 1.25.

For the molecule `Cc1nc2ccc(N=NC3=C(O)CCCC3=O)cc2s1`, the z-score is -0.117.

For the molecule `O=C(Nc1ccncc1)c1cncc(Br)c1`, the z-score was -0.394.

`CN(c1ccc(C(=O)NCc2ccncc2)cc1)S(C)(=O)=O` returned a z-score of 0.373.

In turn, `C/C(=N\NC(=O)c1cccc(S(=O)(=O)Nc2cccc(Cl)c2)c1)c1cccs1` showed a z-score of -0.16.

`CC(C)Cc1csc(NC(=O)c2ccc(F)cc2)c1C(=O)O` displayed a z-score of -0.234.

`N#C/C(=C\c1ccco1)C(=O)Nc1cccc2ncccc12` returned a z-score of -0.604.

In turn, `Cc1nc2nc(SCC(=O)NCc3ccco3)nn2c(C)c1Cc1ccccc1` came in with a z-score of -0.448.

`CC1CN=C2C(C(=O)Nc3ccccc3)=C(O)CC(c3ccccc3)N21` (stereo not given) returned a z-score of 2.31.

As for `CCn1c(CSc2nc3ccccc3s2)nnc1SCC(=O)OC(C)(C)C`, the z-score came out at 0.041.

In the case of `COC(=O)c1ccc(CSc2nnc(Nc3cccc(OC)c3)s2)o1`, the z-score is 0.67.

`Cc1nnc(NC(=O)c2oc3c(ccc4ccccc43)c2C)s1` showed a z-score of 0.0197.

On to `Cc1nnsc1SC(C)C(=O)O` (stereo not given), for which the z-score is 0.0695.

On to `Brc1ccc(CSc2nnc(Cc3c[nH]c4ccccc34)o2)cc1`, for which the z-score was -0.472.

`O=C(NCc1ccco1)c1cnn2c(C(F)(F)F)cc(-c3ccccc3)nc12` came in with a z-score of -0.67.

`COc1ccccc1-c1noc(-c2ccco2)n1`: the z-score turned out to be 0.95.

`CCC(=O)Nc1ccc(N2CCN(S(C)(=O)=O)CC2)cc1`: the z-score was -0.134.

For the molecule `CCN1C(=O)CC(N2CCC(Nc3ccc(OC)cc3)CC2)C1=O` (stereo not given), the z-score stood at 0.0918.

For `CCC(C)[C@H](NC(=O)Nc1ccc2c(c1)OCCO2)C(=O)O` (stereo not given in full), the z-score is -0.196.

`Clc1ccccc1C1CC(c2ccccc2)Nc2ncnn21` (stereo not given) displayed a z-score of -1.78.

Molecule `COC(=O)C(C)Sc1nnc(-c2ccncc2)o1` (stereo not given) came in with a z-score of -0.297.
